The list shows a part of the results.

One assay relates to HSkMC. As to the kind of experiment: cytotoxicity call (relative viability < 0.9). As to conditions: 10 µM.
Another assay relates to HepG2. As to the kind of experiment: cytotoxicity call (relative viability < 0.9). As to conditions: 10 µM.
The next assay deals with S. aureus RN4220. Briefly: growth inhibition call (relative growth <= 0.2). The conditions noted are these: 50 µM.

Consider `C[C@@H]1CN([C@H](C)CO)C(=O)CCCn2cc(nn2)CO[C@H]1CN(C)S(=O)(=O)c1ccc(Oc2ccccc2)cc1`, for which the cytotoxicity call in the assay on HSkMC and in the assay with HepG2 was “inactive” throughout. Also, the growth inhibition call in the assay on S. aureus RN4220 was “inactive”.

As to `C[C@@H]1CCCCO[C@H](CN(C)C(=O)NC2CCCCC2)[C@@H](C)CN([C@H](C)CO)C(=O)c2cc(NC(=O)c3ccncc3)ccc2O1`, the cytotoxicity call with HSkMC and with HepG2 was “inactive” in each case. The growth inhibition call with S. aureus RN4220 was “inactive”.

`COc1ccc(C(=O)O)c(O)c1OC`: the cytotoxicity call with HSkMC and in the assay on HepG2 was “inactive” in each case. Further, the growth inhibition call in the assay with S. aureus RN4220 was “inactive”.

Consider `Cc1ccc(S(=O)(=O)Nc2ccc3c(c2)C(=O)N([C@H](C)CO)C[C@H](C)[C@H](CN(C)Cc2ccc(Cl)c(Cl)c2)O3)cc1`, for which the cytotoxicity call with HSkMC and in the assay on HepG2 was “active” in each case. The growth inhibition call in the assay with S. aureus RN4220 was “inactive”.

As for `CC(C)NC(=O)N(C)C[C@@H]1Oc2c(NS(=O)(=O)c3cccs3)cccc2C(=O)N([C@H](C)CO)C[C@H]1C`, the cytotoxicity call with HSkMC and with HepG2 was “inactive” in each case. The growth inhibition call in the assay on S. aureus RN4220 is “inactive”.

On to `CCS(=O)(=O)N1CCOC[C@]2(CC[C@@H](Cn3cncn3)O2)C1`, for which the cytotoxicity call in the assay on HSkMC and with HepG2 was “inactive” throughout. Besides, in the assay on S. aureus RN4220, the growth inhibition call was “inactive”.

In the case of `CC(=O)Nc1cc(C(C)C)c(C(C)C)cc1C(C)C`, the cytotoxicity call in the assay on HSkMC and with HepG2 was “inactive” throughout. Moreover, in the assay on S. aureus RN4220, the growth inhibition call was “inactive”.

For `CCC1CCC(N)CC1` (stereo unspecified), the cytotoxicity call in the assay on HSkMC and with HepG2 was “inactive” throughout. In addition, in the assay with S. aureus RN4220, the growth inhibition call is “inactive”.

On to `COc1ccc(NC(=O)Nc2ccc3c(c2)C(=O)N([C@H](C)CO)C[C@H](C)[C@@H](CN(C)CC2CCCCC2)OCCCC[C@H](C)O3)cc1`, for which the cytotoxicity call in the assay with HSkMC and with HepG2 was “inactive” throughout. In addition, the growth inhibition call with S. aureus RN4220 was “inactive”.

Regarding `CNC(=O)C[C@H]1CC[C@H]2[C@@H](COC[C@H](O)CN2C(=O)c2ccccn2)O1`, the cytotoxicity call in the assay with HSkMC and in the assay with HepG2 was “inactive” each time. The growth inhibition call in the assay with S. aureus RN4220 was “inactive”.

In the case of `COC[C@H]1CNN1C(=O)C1CCCC1`, the cytotoxicity call in the assay on HSkMC and in the assay with HepG2 was “inactive” each time. Besides, the growth inhibition call with S. aureus RN4220 is “inactive”.

As to `CO[C@@H]1CN(C)C(=O)c2cc(NS(=O)(=O)c3cn(C)cn3)ccc2OC[C@H](C)N(Cc2cccc(F)c2)C[C@@H]1C`, the cytotoxicity call in the assay on HSkMC (human skeletal muscle cells) and in the assay on HepG2 was “inactive” each time. For the same molecule, in the assay with S. aureus RN4220, the growth inhibition call was “inactive”.

The record behind these values is the antibiotic and cytotoxicity screens of Wong et al. (2023).
